The supplement of paper PMC11417369
± gives the standard deviation of the averaged measurements. The list shows a part of the results.

System: PfAP2-EXP AP2 domain (GST-tagged)
Test: gcPBM binding intensity (ln(normalized median fluorescence intensity)); higher = stronger DNA binding
Summary of the method: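 The highest Masliner-normalised natural-log median intensity across replicate spots of either probe orientation is reported as binding intensity. GST-tagged P. falciparum DNA-binding domains expressed in E. coli were applied for 1 h to an Agilent 4 × 180k array of primer-extended double-stranded 36-bp intergenic genomic probes plus negative controls, and bound protein was detected with Alexa488 anti-GST antibody and scanned at 488 nm.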

In order of rising “gcPBM binding intensity (ln)” value:
1. TATTTCATCTTATTTTAGGAAAAACTAATATATAAG [CACACA_negctrl_site1823]  7.96 ± 0.44
2. ATTTTTTATTGTTATAAAAAAAAAATTAAACAATTA [CACACA_negctrl_site1077]  8.19 ± 0.46
3. ATATTTATTTATAATTGTACTAATAATATATTTTAA [XGTACX_site587]  8.22 ± 0.31
4. AAAATAAAAAATTAATGTACTTAGAATTGTCACTAA [XGTACX_site1346]  8.23 ± 0.33
5. GGAATAAATAATATTATACACACGTATATTATTATA [CACACA_site2435]  8.24 ± 0.33
6. AAAATAATAAAAAAAAAAAAAAAAAAAAAAAAGTAT [TGCATGCA_negctrl_site193]  8.26 ± 0.62
7. TGATATTATATATATACACACATGTATGTATATATA [CACACA_site1364]  8.26 ± 0.44
8. ATAAATATATGATAAAGTACATATTTATATAATAAA [XGTACX_site7263]  8.26 ± 0.3
9. AAGCTTTCATAAAGATGTACTTTTTAAAAATAATCT [XGTACX_site5725]  8.28 ± 0.31
10. GAAATGTATAAATCCATACACACATAAATTTTAATA [CACACA_site2364]  8.3 ± 0.26
11. TTTACATTAAATCACGCACACAAAAAAAAAAAAAAA [CACACA_site2418]  8.31 ± 0.47
12. AGCAGGATTAAAAAAAGTACAAGAATTAATATTTAA [XGTACX_site3413]  8.32 ± 0.5
13. ATATTTTGTATAATCACACACACTATTCTTAAATAG [CACACA_site7270]  8.32 ± 0.2
14. TATATCTATAATATTACACACATATATTTATATTTT [CACACA_site7595]  8.34 ± 0.3
15. TTTTTCATGTTTATTAGTACATATATTAAGAATGGA [XGTACX_site3493]  8.39 ± 0.44
16. TAAATATAAAAATGCACACACACAAAAAAAAAAAAA [CACACA_site895]  8.46 ± 0.5
17. TAATGTATCTAAAATTGTACAAATATAAATCTAAAT [XGTACX_site1197]  8.48 ± 0.44
18. TTTTTTTTAATTGTGATACGTATATTATTTAATGAT [CACACA_negctrl_site38]  8.49 ± 0.52
19. TTTGAATTTTTATATACACACATTATTATATTATAT [CACACA_site1593]  8.51 ± 0.37
20. ATAGGTGAATACTAATATAAATTCAAGAGGGAAAAG [CACACA_negctrl_site720]  8.53 ± 0.37
21. TAAAATAATAAACAGAAGAAATCATTCATATAAAAA [XGTACX_negctrl_site502]  8.55 ± 0.32
22. ATGTATCTATATATATGTACACATATTTTAATTAAA [XGTACX_site3673]  8.55 ± 0.3
23. ATTATACATTTTAGATGTACATATTTTAAATTTAAT [XGTACX_site5174]  8.57 ± 0.38
24. GAACATTTGAAATATGCACACATGTATAAACCTACA [CACACA_site2654]  8.61 ± 0.34
25. AAATAAAATAAAACAACACACACGAATGTATAAATA [CACACA_site885]  8.62 ± 0.45
26. AAAGAAAATAACAAAATTTTGAAAACATCACATTCG [CACACA_negctrl_site89]  8.64 ± 0.46
27. AAATTAAAGGCATAAAAGAAAATATTTAATAAAAAA [CACACA_negctrl_site1689]  8.65 ± 0.4
28. CGCGCCCAGAAACACACACACACACCGATATATATA [CACACA_site5250]  8.66 ± 0.4
29. ATCTATGGAGCTTATACACACTTTTATATTTTAACA [CACACA_site5994]  8.66 ± 0.41
30. ATATATAATAAACAGGTGCATTGTTTTATTTTGTAT  8.67 ± 0.057
31. AGAAATTAATCGAAGTGTACATATAAACATACATAT [XGTACX_site5518]  8.68 ± 0.3
32. CAAAAAAAGGAAAAGATACACACCGTAAATTAAAAT [CACACA_site3612]  8.7 ± 0.67
33. TGTGCATAATTTTGTGCACACCACGCTAATAATTTT [CACACA_site2915]  8.73 ± 0.014
34. TAAAAATAAAGAAAATGTACATAAATAATAATACAT [XGTACX_site2278]  8.76 ± 0.25
35. AATTTGTTGAAACACACACACACATACATATATATA [CACACA_site2287]  8.8 ± 0.35
36. ACCTATTTATAATAGTGTACGTACAAATTTGTTTAC [XGTACX_site8176]  8.83 ± 0.34
37. AAAAAAATAATAAAATGTACAAATAAACACATAAAG [XGTACX_site5102]  8.93 ± 0.41
38. AATTATTATCCCCTCACACACAAAAATAAAAAGAAT [CACACA_site2885]  9.06 ± 0.66
39. TATTCGTCTTTTTTCTCACACACCCTTTTTATTAAA [CACACA_site2508]  9.06 ± 0.54
40. TATTTATTTGTGGGGTGTACGAAATTTTTTTTTTTT [XGTACX_site5091]  9.48 ± 0.75
41. ACCAGTTCTTAATACAAATATGTACATATATATATA [GTGCAC_negctrl_site56]  9.74 ± 0.14
42. TATATATATATAATGTGTACATACTAAATAGAGGAC [XGTACX_site4153]  9.98 ± 0.26
43. AAATTTAGGAACATTATATATATATATATATATATA [CACACA_negctrl_site862]  10.1 ± 0.62
44. TTTTGTAAATATATATGTACATATATATATATATAT [XGTACX_site5803]  10.1 ± 0.34
